# Test results: PubChem BioAssay AID1259400 (National Center for Advancing Translational Sciences (NCATS), 2018)
# Screen size: about 350,000 compounds; about 2,100 (0.6%) were called active. This list was built around the results that the source calls inconclusive (neither active nor inactive); the mix of calls is not that of the screen.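 Rule for the calls: active = activity change of -60% or lower, but not beyond a set lower limit; inconclusive = change between -60% and -40%, or beyond the set limit; inactive = change above -40%.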
# Target: Relaxin receptor 1 (Homo sapiens) (UniProt Q9HBX9)
# Assay: qHTS Assay for Antagonists of the Relaxin Receptor RXFP1
# Settings: HEK293-RXFP1, relaxin-stimulated cAMP HTRF, 30 min; at 57.5 µM; hits give low values
# % is set by controls: 0 for no effect and ±100 for the full control effect.
# Sequence of UniProt Q9HBX9 (Q9HBX9 whole entry, looked up): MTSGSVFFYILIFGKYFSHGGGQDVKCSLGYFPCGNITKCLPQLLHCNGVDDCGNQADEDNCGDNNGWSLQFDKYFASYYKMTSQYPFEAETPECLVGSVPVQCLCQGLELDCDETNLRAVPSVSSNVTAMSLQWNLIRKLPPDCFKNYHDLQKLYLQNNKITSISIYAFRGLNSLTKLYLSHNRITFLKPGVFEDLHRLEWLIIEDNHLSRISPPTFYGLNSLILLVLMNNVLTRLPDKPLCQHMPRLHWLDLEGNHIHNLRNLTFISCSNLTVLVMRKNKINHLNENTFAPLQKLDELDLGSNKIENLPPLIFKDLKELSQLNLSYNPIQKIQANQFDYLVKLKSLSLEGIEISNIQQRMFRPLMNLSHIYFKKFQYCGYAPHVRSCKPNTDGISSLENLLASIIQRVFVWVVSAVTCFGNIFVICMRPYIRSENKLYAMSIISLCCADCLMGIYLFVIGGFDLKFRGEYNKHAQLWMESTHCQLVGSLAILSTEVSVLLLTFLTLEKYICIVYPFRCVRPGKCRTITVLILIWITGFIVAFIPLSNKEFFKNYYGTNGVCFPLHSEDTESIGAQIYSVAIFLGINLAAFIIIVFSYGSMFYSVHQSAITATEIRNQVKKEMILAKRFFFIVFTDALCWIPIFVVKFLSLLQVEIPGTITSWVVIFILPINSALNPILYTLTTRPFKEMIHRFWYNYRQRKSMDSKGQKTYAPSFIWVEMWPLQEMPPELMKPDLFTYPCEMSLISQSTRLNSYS
row,SMILES,"activity change, negative = inhibition"
1,CC(=O)OCCNc1cc(Sc2nc3ccccc3[nH]2)c2nonc2c1[N+](=O)[O-],active: -77.7%
2,COc1ccc(-c2noc(CN(C)Cc3ccccc3)n2)c(OC)c1OC,inactive: 5.55%
3,O=C(NCC1COCCO1)c1ccc2nc(Cc3cccc(Cl)c3)oc2c1 (stereo not drawn),inactive: -3.49%
4,CC1(C)Cc2c(ccc3ccccc23)/C(=C/C(=O)N2CCCCC2)N1,inconclusive: -52%
5,CC(=NNc1ccc2ccccc2n1)c1ccccc1O,inconclusive: -52%
6,Cc1c(Cl)cccc1-c1ccc(CNCCCSc2nnnn2C)o1,inactive: -6.68%
7,O=C(Nc1nccs1)c1cc(-c2ccncc2)nc2ccccc12,inconclusive: -50.8%
8,Cc1c(CCC(=O)O)c(=O)n2c([nH]c3ccccc32)c1C#N,inconclusive: -40%
9,COc1ccc(CCNC(=O)CCCCCN2C(=O)[C@@H]3Cc4ccccc4CN3C2=O)cc1OC,inconclusive: -52.7%
10,CS(=O)(=O)c1ccc(C(=O)Nc2ccc(N3CCCCC3)cc2)c(Cl)c1,inconclusive: -54.9%
11,COc1ccc(CCNC(=O)c2cc(S(=O)(=O)N3CCC4(CC3)OCCO4)ccc2F)cc1OC,inactive: -23.3%
12,Cc1ccc(CN2CCC(C(=O)c3ccc(F)cc3)CC2)cc1,inactive: 5.91%
13,CCOC(=O)c1nn(-c2ccccc2C)c2nc(-c3ccc(C)cc3)c(C#N)c(=O)n12,inactive: -16.1%
14,CCOC(=O)c1c(-c2ccccc2)csc1NC(=S)N(CC)CC,inconclusive: -41.7%
15,Fc1ccc(Nc2nc(SCc3cccc(F)c3)nc3ccccc23)cc1,inconclusive: -49.1%
16,Cc1cccc(-n2c(=O)[nH]c3c(C(N)=O)nc(C(C)C)nc32)c1,inactive: 2.91%
17,CCCCC(=O)N1CCCC(c2nc(-c3cccc(OC)c3)no2)C1 (stereo not drawn),inactive: -4.43%
18,O=C(NCCCN1CCCCC1)C1CCC(=O)N1CCc1ccccc1 (stereo not drawn),inactive: -21.8%
19,COc1ccc(Nc2nc(-c3ccc4c(c3)NC(=O)CO4)cs2)cc1,inconclusive: -45.5%
20,CCc1ccc(CN(C)C(=O)CCc2nc3ccccc3n(-c3ccc(OC)cc3)c2=O)cc1,inconclusive: -49%
21,C/C(Cn1nnc([N+](=O)[O-])n1)=N\NC(=O)c1ccccc1,inactive: 3.46%
22,COc1cccc(Nc2nc3ccc(OC)cc3s2)c1,inconclusive: -41.6%

row,SMILES,"activity change, negative = inhibition"
1,CC(C)(C)c1cc(C(=O)NCCN2CCCC2)cc(C(C)(C)C)c1,inconclusive: -45.6%
2,O=C(N/N=C\C=C\c1ccc2c(c1)OCO2)c1ccc(F)cc1,inconclusive: -47.8%
3,CC(=O)N=C1SC2CS(=O)(=O)CC2N1c1c(Cl)cccc1Cl (stereo not drawn),inactive: -3.03%
4,Cc1cc(C)c(S(=O)(=O)NCC(c2cccnc2)N2CCN(Cc3ccccc3)CC2)c(C)c1 (stereo not drawn),inconclusive: -40.3%
5,O=C(CCS(=O)(=O)c1nc(-c2cccs2)cc(C(F)(F)F)n1)Nc1ccc(Br)cc1,active: -108%
6,CC(CN)(NS(=O)(=O)c1ccccc1)c1ccccc1 (stereo not drawn),inactive: 8.02%
7,CC(C)C(=O)N(c1cc2sc(=O)oc2c2ccccc12)S(=O)(=O)c1cccs1,active: -67.6%
8,COc1ccc(-c2onc(C)c2C)cc1S(=O)(=O)N1CCc2ccccc21,inactive: -10.2%
9,O=C(NNC(=O)c1cc2cc(OC(F)(F)F)ccc2[nH]1)c1cccc(C(F)(F)F)c1,inconclusive: -52.7%
10,CNC(=O)COC(=O)/C=C/c1cn(-c2ccccc2)nc1-c1ccc2c(c1)OCCO2,inactive: 1.03%
11,O=C(Nc1cccc2ccccc12)N1CCOCC1,inactive: -0.804%
12,C=CCOc1ccc(CNC(C)(C)CO)cc1OCC,inconclusive: -42.3%
13,O=C(NNc1ccc([N+](=O)[O-])cc1)c1ccco1,inactive: -2.41%
14,CN(C)CCCN(C(=O)c1ccc(C(=O)c2ccccc2)cc1)c1nc2cc3c(cc2s1)OCO3,inconclusive: -51.5%
15,COc1ccc(-c2nc(CSCC(=O)NCCC3=CCCCC3)c(C)o2)cc1OC,inactive: -1.19%
16,CCc1ccc(NS(=O)(=O)c2ccc3[nH]cc(C(=O)N4CCc5ccccc54)c(=O)c3c2)cc1,inconclusive: -51.6%
17,CC(C)c1ccc(S(=O)(=O)c2cnc(=S)[nH]c2N)cc1,inconclusive: -45.7%
18,CCn1c(CC(=O)Nc2ccccc2F)nnc1SCC(=O)NC1CCCCC1,inconclusive: -42.3%
19,O=C(N/N=C\c1ccco1)Nc1cccc(Cl)c1,inconclusive: -59.1%
20,Cn1cnc(S(=O)(=O)N2CCN(C(c3ccc(F)cc3)c3ccc(F)cc3)CC2)c1,inconclusive: -40.5%
21,O=C1/C(=C/c2cccs2)SC(=S)N1C1CCS(=O)(=O)C1 (stereo not drawn),inconclusive: -40.4%
22,CCn1nc(C)c2c(-c3ccccc3)cc(=O)n(C(C)C(=O)Nc3cccc(F)c3)c21 (stereo not drawn),inconclusive: -44.6%

row,SMILES,"activity change, negative = inhibition"
1,CC(Sc1nnnn1C1CCCC1)C(=O)Nc1cccc(S(=O)(=O)N2CCOCC2)c1 (stereo not drawn),inactive: 3.89%
2,CSc1ccc(CN2CCN(Cc3ccc([N+](=O)[O-])cc3)CC2)cc1,inconclusive: -40.4%
3,COc1cc(/C=C2/SC(=O)NC2=O)ccc1OC(=O)c1ccco1,inconclusive: -42%
4,CCCCn1c(O)c(/C=C2\C=Nc3ccccc32)c(=O)[nH]c1=O,inconclusive: -47.5%
5,Cc1ccc2c(C)ccc(O)c2n1,active: -70.4%
6,CCc1cccc(NC(=O)c2ccc(Br)o2)c1,inconclusive: -40%
7,CC(/C=C1\SC(=S)N(CCCC(=O)Nc2ccc(C(=O)O)cc2)C1=O)=C\c1ccccc1,inconclusive: -46.2%
8,CN(C)c1ccc(/C=C2\C(=N)N3N=C(CC(=O)N4CCCC4)SC3=NC2=O)cc1Br,inconclusive: -40.2%
9,CC(=O)Nc1cccc(-c2csc(Nc3ccc(C)cn3)n2)c1,active: -60.3%
10,COc1ccccc1NC(=O)c1ccc(NC(=O)c2ccco2)cc1,inconclusive: -42.1%
11,CCOc1ccccc1N(CC)C(=O)c1cc2ccc3cccnc3c2[nH]1,inconclusive: -46.6%
12,O=C(CCS(=O)(=O)c1nc(-c2cccs2)cc(C(F)(F)F)n1)Nc1cccc(O)c1,inconclusive: -54.5%
13,Cc1nc2ccccc2c2c1CC(C(C)(Cl)Br)O2 (stereo not drawn),inconclusive: -47.2%
14,O=Cc1cccn1-c1ncc(Br)cn1,inconclusive: -40.5%
15,Cc1ccc(S(=O)(=O)N2CCOCC2)cc1NC(=O)c1cc(-c2ccccn2)nc2ccccc12,inconclusive: -52.3%
16,O=Cc1cc(N=Nc2ccccc2Cl)ccc1O,active: -64.8%
17,CCOc1ccc(NC(=S)NNC(=S)Nc2cccc(C(F)(F)F)c2)cc1,inconclusive: -57.5%
18,COc1cccc(NC(=O)c2oc3ccccc3c2NC(=O)Cc2cccc(C)c2)c1,inactive: -12.2%
19,COc1cccc(N2CCN(C(=O)CCCCCNc3nc(=S)[nH]c4ccccc34)CC2)c1,active: -89.8%
20,COCC1CCN(Cc2cn[nH]c2-c2cc3ccccc3o2)C1 (stereo not drawn),inconclusive: -47.1%
21,Cc1ccc(Cl)c(OCCCN(C)Cc2ccccc2)c1,inactive: -26.6%
22,COc1ccc(CCC(=O)NCc2ccc3c(c2)CCN3C(=O)c2cccc(C)c2)cc1,active: -96.1%

row,SMILES,"activity change, negative = inhibition"
1,O=C1NC(=S)NC1=Cc1ccc(Cl)cc1Cl,inconclusive: -41.2%
2,Cc1cccc(C(=O)Nc2cccc(C(=O)OCc3cc(=O)n4nc(C5CC5)sc4n3)c2)c1,inactive: -0.049%
3,Cc1ccccc1C(=O)Nc1ccc(C(=O)N/N=C/c2ccc(O)c(Br)c2)cc1,inconclusive: -59.7%
4,COc1ccc(NC(=O)C(=S)NC2CCCCC2)cc1,inconclusive: -48.6%
5,O=C(Nc1nc(-c2ccc(Cl)s2)cs1)c1ccco1,inconclusive: -51.4%
6,CC(C)(C)C(=O)OCCNc1nc(-c2ccccc2)nc2ccccc12,inconclusive: -42.9%
7,Cc1ccc(C(C)(C)C)cc1S(=O)(=O)N1CC(=O)Nc2ccccc21,inconclusive: -44.3%
8,O=C(N/N=C/C(Br)=C/c1ccccc1)c1cccs1,inconclusive: -46.7%
9,COC(=O)c1cc(CSc2nnc(-c3ccccc3)c(-c3ccccc3)n2)oc1C,inconclusive: -41.2%
10,Cn1cc(C(=O)NCc2ccccc2)c(=O)c2cc(S(=O)(=O)N3CCCCCC3)ccc21,inactive: -2.17%
11,COc1cccc(CNC(=O)c2c3c(nc4ccccc24)C(=O)N(C2CCCCC2)C3)c1,inconclusive: -43.6%
12,COc1cc(/C=C/C=C2/CC/C(=C/C=C/c3ccc(O)c(OC)c3)C2=O)ccc1O,inconclusive: -49.2%
13,COC(=O)c1sc(-c2cccs2)cc1NC(=O)/C=C/C(=O)O,inconclusive: -50.3%
14,Cn1c(=O)c([N+](=O)[O-])c(-n2ccnc2)c2ccccc21,active: -110%
15,COc1ccc(-c2nc(CS(=O)(=O)CC(=O)NCCc3ccccc3)c(C)o2)cc1,inconclusive: -50.1%
16,CCCCOC(=O)c1ccc(NC(=O)/C(C#N)=C/c2ccc(-c3ccccc3)o2)cc1,inactive: -8.37%
17,CCNc1nc(CC)nc2c1oc1ccccc12,inactive: -1.54%
18,Cc1ccccc1CS(=O)(=O)c1nnc([C@H](Cc2ccccc2)NC(=O)OC(C)(C)C)o1,active: -66.7%
19,Cc1ccc2c(c1C)-c1c(ccc(C)c1C)C(=O)C2=O,active: -68.7%
20,Cc1cc(OCC(=O)NCc2ccccn2)c2c(C)c(C)c(=O)oc2c1,inconclusive: -41.9%
21,O=C1NC(=O)/C(=C/c2cccc3ccccc23)S1,inconclusive: -47.1%
22,CC(C)Cc1ccc(C(C)CC2=CCC(CN(C)C)C2=O)cc1 (stereo not drawn),active: -83.5%
